In PubChem BioAssay (NCATS):
Several values for one entry are separate records, joined by “and”; a condition that tells them apart may be missing. Equal values may be shown once. The shares of active, inactive and inconclusive entries below differ from those in the screen. For some of these results: A potency beside an inconclusive call is a rough fit, not a confirmed value. Activity calls are given as the source filed them. Unless noted, calls follow the shape of the dose curve; as a rule, active = well fitted curve in the direction sought with a large enough effect; inconclusive = small, poorly fitted or top-dose-only effect, or another doubt; inactive = no such curve, though single readings can be large; an effect the other way counts as inactive or inconclusive.

Tests used:
[1] = biological target: Calcium and integrin-binding protein 1 (Homo sapiens) (UniProt Q99828); assay: Primary qHTS for Identification of Calcium Integrin Binding Protein 1 (CIB1) Competitor (AID 1508620);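 as to activity change, negative = inhibition: GST tagged CIB1 binding a fluorescein labelled alphaIIb integrin peptide tracer; top concentration of the series differs between compounds; % is scaled to controls: 0 for no effect and ±100 for the full control effect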
UniProt Q99828, sequence (Q99828 whole entry, looked up): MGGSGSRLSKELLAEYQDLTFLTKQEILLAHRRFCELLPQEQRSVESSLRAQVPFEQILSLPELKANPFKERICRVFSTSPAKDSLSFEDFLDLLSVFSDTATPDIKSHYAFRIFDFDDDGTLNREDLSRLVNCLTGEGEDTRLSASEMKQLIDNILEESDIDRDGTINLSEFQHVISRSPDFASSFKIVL
Method in brief: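 Fluorescence polarization competition: GST-tagged CIB1 (1 uM final) preincubated with compound 15 min at room temperature, then FITC-labelled alphaIIb peptide (100 nM final) added. After 15 min at room temperature, polarization read at Ex 480/Em 540.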

[2] = Primary qHTS for inhibitors of nuclear receptor binding SET domain protein 2 (NSD2) in an isogenic RCH-ACV NSD2 p.E1099K mutant (9B) (AID 1645876); also: nearly all actives have a fitted effect of over 70% in size
[3] = Primary qHTS for inhibitors of nuclear receptor binding SET domain protein 2 (NSD2) in an RCH-ACV wild type WT cells (2C) (AID 1645877); conditions: activity change, negative = cell killing: at 44.9 µM (top of the series) unless noted; also: nearly all actives have a fitted effect of over 70% in size
[4] = Confirmatory qHTS for small molecule stabilizers of the endoplasmic reticulum resident proteome: Secreted ER Calcium Modulated Protein (SERCaMP) assay (AID 1508628); also: nearly all actives have a fitted effect of over 40% in size
Method in brief: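 We seeded SH-SY5Y-GLuc-SERCaMP cells, added compounds (three concentrations in the primary run, eleven up to 76.6 uM in confirmation), incubated 16 h, depleted ER calcium with thapsigargin, and read luciferase 4 h later.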

[5] = Cell Viability qHTS for small molecule stabilizers of the endoplasmic reticulum resident proteome (AID 1508629); conditions: cell viability counter-screen, 100 nM thapsigargin for final 4 h;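 also: compound exposure about 46 h in total before the viability read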;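 as to max response: human SH-SY5Y neuroblastoma cells carrying the GLuc-SERCaMP reporter; % is scaled to controls: 0 for no effect and ±100 for the full control effect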
[6] = Primary qHTS for small molecule stabilizers of the endoplasmic reticulum resident proteome: Secreted ER Calcium Modulated Protein (SERCaMP) assay (AID 1508630); conditions: SH-SY5Y GLuc-SERCaMP (Gaussia luciferase released on ER calcium loss) secretion, thapsigargin, luminescence; activity change, negative = inhibition: at 38.4 µM (top of the series)
Method in brief: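 GLuc-SERCaMP-expressing SH-SY5Y cells, pretreated 16 h with compound, are challenged with thapsigargin to empty ER calcium stores; after 4 h, coelenterazine is added directly to the medium and luminescence is imaged.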

[7] = biological target: Cytochrome P450 2C9 (Homo sapiens) (UniProt P11712); assay: Cytochrome P450 family 2 subfamily C member 9 (CYP2C9) small molecule antagonists: luciferase biochemical (cell-free) qHTS assay (AID 1645842; active = well fitted curve in the direction sought with a large enough effect in the repeat runs; inconclusive = weak or mixed curves; inactive = no such curve, though single readings can be large; an effect the other way counts as inactive or inconclusive; also: nearly all actives have a fitted effect of over 55% in size; as to activity change, negative = inhibition: % is scaled to controls: 0 for no effect and ±100 for the full control effect)
UniProt P11712, sequence (P11712 whole entry, looked up): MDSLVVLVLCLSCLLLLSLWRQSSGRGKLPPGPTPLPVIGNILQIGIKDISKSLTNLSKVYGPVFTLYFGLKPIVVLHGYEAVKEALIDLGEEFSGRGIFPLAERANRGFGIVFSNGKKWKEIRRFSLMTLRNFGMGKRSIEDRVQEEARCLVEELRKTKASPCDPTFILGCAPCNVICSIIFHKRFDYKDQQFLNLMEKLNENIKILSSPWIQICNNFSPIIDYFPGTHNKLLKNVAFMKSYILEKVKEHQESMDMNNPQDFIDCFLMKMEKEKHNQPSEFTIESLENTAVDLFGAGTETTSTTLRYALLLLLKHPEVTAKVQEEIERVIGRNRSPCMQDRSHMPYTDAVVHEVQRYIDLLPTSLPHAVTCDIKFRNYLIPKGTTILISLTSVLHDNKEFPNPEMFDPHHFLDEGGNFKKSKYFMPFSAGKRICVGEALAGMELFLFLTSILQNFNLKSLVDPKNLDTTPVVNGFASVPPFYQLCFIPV
Method in brief: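 Luminescence, after 20 min with luciferin detection reagent, reflected CYP2C9 turnover during a 1 h NADPH-driven reaction at 37C. Enzyme-substrate mix contained 0.4% bovine serum albumin and was preincubated with compound 10 min at room temperature.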

[8] = A High-Content qHTS Against Drug Library for the Identification of Small Molecules that Inhibit DYT1 Early Onset Primary Dystonia-Associated Cell Pathology (AID 1645839; calls by dose curve)
Method in brief: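 Flp-In T-REx 293 cells with tetracycline-inducible EGFP-delE hTOR1A (WT EGFP-hTOR1A as reference), 800 cells/well; compound added with tetracycline, 48 h at 37 C. Fixed, permeabilized cells imaged; %pathology (punctate TorsinA) primary, cell count counterscreen.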

[9] = biological target: Cytochrome P450 2D6 (Homo sapiens) (UniProt P10635); assay: Cytochrome P450 family 2 subfamily D member 6 (CYP2D6) small molecule antagonists: luciferase biochemical (cell-free) qHTS assay (AID 1645840; active = well fitted curve in the direction sought with a large enough effect in the repeat runs; inconclusive = weak or mixed curves; inactive = no such curve, though single readings can be large; an effect the other way counts as inactive or inconclusive; also: nearly all actives have a fitted effect of over 55% in size)
UniProt P10635, sequence (P10635 whole entry, looked up): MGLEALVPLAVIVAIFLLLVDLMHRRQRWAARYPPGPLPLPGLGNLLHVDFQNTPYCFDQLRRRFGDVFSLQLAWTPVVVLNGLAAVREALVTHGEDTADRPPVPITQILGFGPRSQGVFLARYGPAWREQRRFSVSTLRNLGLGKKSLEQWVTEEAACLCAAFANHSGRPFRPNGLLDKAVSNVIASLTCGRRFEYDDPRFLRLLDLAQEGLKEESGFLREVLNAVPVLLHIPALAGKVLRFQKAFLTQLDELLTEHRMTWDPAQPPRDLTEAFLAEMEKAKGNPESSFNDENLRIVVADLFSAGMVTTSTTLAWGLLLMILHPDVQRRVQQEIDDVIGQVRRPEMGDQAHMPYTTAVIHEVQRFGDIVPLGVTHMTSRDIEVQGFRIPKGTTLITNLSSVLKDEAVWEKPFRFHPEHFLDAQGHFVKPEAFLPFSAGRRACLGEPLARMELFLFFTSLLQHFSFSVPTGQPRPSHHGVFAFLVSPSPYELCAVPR
Method in brief: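 P450-Glo luminescent screen: recombinant CYP2D6 enzyme–proluciferin substrate mix preincubated with compound 10 min at room temperature, then NADPH regeneration added for 1 h at room temperature. Detection reagent added for 20 min; luciferin light read as relative luminescence units.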

[10] = biological target: Cytochrome P450 3A4 (Homo sapiens) (UniProt P08684); assay: Cytochrome P450 family 3 subfamily A member 4 (CYP3A4) small molecule antagonists: luciferase qHTS assay (AID 1645841; active = well fitted curve in the direction sought with a large enough effect in the repeat runs; inconclusive = weak or mixed curves; inactive = no such curve, though single readings can be large; an effect the other way counts as inactive or inconclusive; also: nearly all actives have a fitted effect of over 45% in size)
UniProt P08684, sequence (P08684 whole entry, looked up): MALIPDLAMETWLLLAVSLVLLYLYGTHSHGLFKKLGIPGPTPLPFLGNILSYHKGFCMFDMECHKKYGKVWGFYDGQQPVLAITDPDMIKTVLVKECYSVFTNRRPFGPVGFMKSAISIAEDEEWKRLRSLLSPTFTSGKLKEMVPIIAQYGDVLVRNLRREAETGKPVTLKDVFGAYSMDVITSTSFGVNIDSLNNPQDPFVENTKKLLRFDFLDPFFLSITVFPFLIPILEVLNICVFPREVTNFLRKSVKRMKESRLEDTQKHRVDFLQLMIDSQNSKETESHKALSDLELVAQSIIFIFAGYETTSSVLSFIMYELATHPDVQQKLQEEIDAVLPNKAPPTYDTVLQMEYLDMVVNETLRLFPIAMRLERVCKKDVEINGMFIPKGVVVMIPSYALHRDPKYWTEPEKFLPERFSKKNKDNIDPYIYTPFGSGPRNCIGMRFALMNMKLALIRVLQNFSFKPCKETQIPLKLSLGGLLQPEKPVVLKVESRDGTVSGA
Method in brief: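 P450-Glo CYP3A4 enzyme with proluciferin substrate preincubated 10 min with compound at room temperature, then NADPH regeneration 1 h. Luciferin detection reagent added for 20 min; luminescence recorded. Ketoconazole positive control.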

[11] = biological target: Rap guanine nucleotide exchange factor 3 (Homo sapiens) (UniProt O95398); assay: Confirmatory qHTS for antagonist of cAMP-regulated guanine nucleotide exchange factor 3 (EPAC1) (AID 1645880); also: nearly all actives have a fitted effect of over 55% in size
UniProt O95398, sequence (O95398 whole entry, looked up): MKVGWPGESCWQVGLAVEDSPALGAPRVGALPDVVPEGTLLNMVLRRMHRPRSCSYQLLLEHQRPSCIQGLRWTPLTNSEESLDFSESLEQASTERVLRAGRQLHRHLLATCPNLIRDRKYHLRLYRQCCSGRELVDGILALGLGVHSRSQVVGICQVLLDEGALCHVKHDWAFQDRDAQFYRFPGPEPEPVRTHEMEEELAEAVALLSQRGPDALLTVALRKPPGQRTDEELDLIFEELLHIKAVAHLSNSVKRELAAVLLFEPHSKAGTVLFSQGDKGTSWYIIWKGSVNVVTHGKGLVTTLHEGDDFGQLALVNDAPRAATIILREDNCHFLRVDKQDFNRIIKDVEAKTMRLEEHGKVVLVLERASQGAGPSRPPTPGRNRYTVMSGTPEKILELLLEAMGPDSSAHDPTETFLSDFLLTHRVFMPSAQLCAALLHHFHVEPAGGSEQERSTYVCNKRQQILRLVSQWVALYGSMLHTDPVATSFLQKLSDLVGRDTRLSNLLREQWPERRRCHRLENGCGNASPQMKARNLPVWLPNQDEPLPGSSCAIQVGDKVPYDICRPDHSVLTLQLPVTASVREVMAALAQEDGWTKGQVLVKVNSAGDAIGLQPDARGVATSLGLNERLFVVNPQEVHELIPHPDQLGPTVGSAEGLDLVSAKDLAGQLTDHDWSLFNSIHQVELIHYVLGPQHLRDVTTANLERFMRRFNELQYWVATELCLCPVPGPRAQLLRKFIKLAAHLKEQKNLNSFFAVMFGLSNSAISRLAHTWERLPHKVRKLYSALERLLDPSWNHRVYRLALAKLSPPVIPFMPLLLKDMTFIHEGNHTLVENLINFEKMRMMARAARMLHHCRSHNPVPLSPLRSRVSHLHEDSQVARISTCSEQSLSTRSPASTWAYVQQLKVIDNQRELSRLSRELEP
Method in brief: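 Nucleotide exchange uses 100 nM EPAC1, 250 nM RAP1B-BODIPY-GDP and 50 uM GDP, with compounds in a concentration-titration series. After 5 min at room temperature, fluorescence (480 nm ex/540 nm em) is read every 5 min for 30 min. Data are normalized to control ATA and DMSO.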

[12] = biological target: Papain (Carica papaya) (UniProt P00784); assay: Primary qHTS assay for inhibitors of the protease papain (AID 1645873);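 also: papain turnover of Z-FR-AMC read as the AMC fluorescence gain over 10 min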
UniProt P00784, sequence (P00784 whole entry, looked up): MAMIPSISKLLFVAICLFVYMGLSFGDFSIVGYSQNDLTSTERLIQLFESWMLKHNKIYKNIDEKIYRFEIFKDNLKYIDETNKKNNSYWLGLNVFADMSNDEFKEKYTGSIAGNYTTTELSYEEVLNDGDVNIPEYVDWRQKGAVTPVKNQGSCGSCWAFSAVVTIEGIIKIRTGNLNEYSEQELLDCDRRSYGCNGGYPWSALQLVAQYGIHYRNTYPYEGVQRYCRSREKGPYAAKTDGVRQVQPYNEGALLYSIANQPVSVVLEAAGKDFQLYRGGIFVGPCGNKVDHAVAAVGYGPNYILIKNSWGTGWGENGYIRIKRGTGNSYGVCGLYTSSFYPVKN

[13] = biological target: N-terminal Xaa-Pro-Lys N-methyltransferase 1 (Homo sapiens) (UniProt Q9BV86); assay: Confirmatory qHTS for Inhibitors of N-terminal methyltransferase 1 (NTMT1): MTaseGlo Assay (AID 1645874); also: nearly all actives have a fitted effect of over 65% in size
UniProt Q9BV86, sequence (Q9BV86 whole entry, looked up): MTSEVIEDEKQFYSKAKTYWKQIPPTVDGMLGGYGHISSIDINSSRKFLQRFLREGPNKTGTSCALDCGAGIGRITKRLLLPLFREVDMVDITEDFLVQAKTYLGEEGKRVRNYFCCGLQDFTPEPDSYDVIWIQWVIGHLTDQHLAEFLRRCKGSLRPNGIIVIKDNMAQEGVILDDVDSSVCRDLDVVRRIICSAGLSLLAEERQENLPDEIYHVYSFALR
Method in brief: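 Preincubation of NTMT1 (125 nM) plus SAM (100 uM) with test compounds lasted 15 min; methylation of 1 uM SPKRIA then proceeded 30 min in the dark at room temperature. Luciferase signal reported SAH produced.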
Potency is read from the fitted curve at half-maximal effect; tags tell the direction and shape of the fitted curve.

CCOc1ccc(Cc2nccc3cc(OCC)c(OCC)cc23)cc1OCC
Potency [1]: inactive | Potency [2]: active: 2.37 µM | Potency [3]: active: 2.37 µM

O=C(CCCN1CCC(O)(c2cccc(C(F)(F)F)c2)CC1)c1ccc(F)cc1
Potency [4]: inconclusive: 31.6 µM [inhibitor, partial curve, poor fit] and inconclusive: 44.7 µM [inhibitor, partial curve, poor fit] | Potency [5]: inconclusive: 10 µM [cytotoxic, full curve] | max response [5]: inactive: -8.14% | Potency [6]: inconclusive: 31.6 µM [inhibitor, partial curve, poor fit] | Potency [2]: inconclusive: 33.5 µM [inhibitor, single point] | Potency [3]: inconclusive: 29.9 µM [inhibitor, single point]

CNCCC(Oc1ccc(C(F)(F)F)cc1)c1ccccc1 (centres undefined)
Potency [4]: inactive | Potency [5]: active: 25.1 µM | Potency [6]: inconclusive: 31.6 µM [inhibitor, partial curve, poor fit] | Potency [7]: inconclusive: 38.9 µM [inhibitor, single point] | Potency [2]: inconclusive: 23.7 µM [inhibitor, single point]

CC(CN1c2ccccc2Sc2ccccc21)N(C)C (centres undefined)
Potency [4]: inconclusive: 15.8 µM [inhibitor, partial curve] | Potency [5]: inconclusive: 14.1 µM [cytotoxic, partial curve] | Potency [6]: inconclusive: 28.2 µM [inhibitor, single point] and inconclusive: 10 µM [inhibitor, partial curve, poor fit] | Potency [8]: inconclusive: 35.5 µM [inhibitor, single point] | Potency [9]: active: 2.45 µM | Potency [7]: inactive

COc1cc(C(=O)OCCCN2CCCN(CCCOC(=O)c3cc(OC)c(OC)c(OC)c3)CC2)cc(OC)c1OC
Potency [4]: inconclusive: 20 µM [inhibitor, full curve] | max response [5]: inactive: -32.9% | Potency [6]: inconclusive: 10 µM [inhibitor, partial curve, poor fit] and inconclusive: 22.4 µM [inhibitor, single point] and inconclusive: 5.01 µM [inhibitor, partial curve, poor fit] | Potency [8]: inconclusive: 12.6 µM [inhibitor, single point] | Potency [2]: inconclusive: 21.1 µM [inhibitor, single point]

O=C1OC2(c3ccccc31)c1cc(Br)c(O)c(Br)c1Oc1c2cc(Br)c(O)c1Br
Potency [4]: inconclusive: 25.1 µM [inhibitor, partial curve] | Potency [5]: inconclusive: 0.224 µM [rising, full curve, poor fit] | Potency [6]: inconclusive: 10 µM [inhibitor, partial curve, poor fit] | Potency [8]: inconclusive: 35.5 µM [inhibitor, single point] | Potency [9]: inconclusive: 15.5 µM [inhibitor, partial curve] | Potency [10]: active: 17.4 µM | Potency [2]: inconclusive: 33.5 µM [inhibitor, single point]

CCN(CC)C(C)CN1c2ccccc2Sc2ccccc21 (centres undefined)
Potency [1]: inactive | Potency [11]: inconclusive: 49.8 µM [inhibitor, partial curve]

OCCN1CCN(CCCN2c3ccccc3C=Cc3ccccc32)CC1
Potency [4]: inconclusive: 15.8 µM [inhibitor, full curve] | max response [5]: inactive: -5.61% | Potency [6]: inconclusive: 28.2 µM [inhibitor, single point] and inconclusive: 10 µM [inhibitor, partial curve, poor fit] | Potency [8]: inconclusive: 35.5 µM [inhibitor, single point] | Potency [12]: inconclusive: 14.1 µM [inhibitor, partial curve, poor fit] | Potency [2]: inconclusive: 23.7 µM [inhibitor, single point] | Potency [3]: inconclusive: 23.7 µM [inhibitor, single point]

CCCCC(CC)CN=C(N)NC(N)=NCCCCCCN=C(N)NC(N)=NCC(CC)CCCC (centres undefined)
Potency [1]: inconclusive: 22.4 µM [inhibitor, full curve] | Potency [13]: active: 18.3 µM | Potency [2]: active: 0.75 µM | Potency [3]: active: 0.841 µM

CNCCCC1c2ccccc2C=Cc2ccccc21
Potency [4]: inactive | Potency [5]: inconclusive: 15.8 µM [cytotoxic, partial curve] | Potency [6]: inconclusive: 11.2 µM [inhibitor, partial curve, poor fit] and inconclusive: 22.4 µM [inhibitor, single point] | Potency [2]: inconclusive: 23.7 µM [inhibitor, single point]
